In article PMC4336329 (PLoS ONE, 2015):
Screen size: about 310,000 compounds; about 2,200 (0.71%) showed an effect of 50% or more. Effects have a minus sign here. This is one part of the list.

target: human ether-à-go-go-related gene (hERG) potassium channel (human, UniProt Q12809); experiment: primary screen, population patch clamp on CHO cells stably expressing hERG
Sequence (Q12809 whole entry, looked up): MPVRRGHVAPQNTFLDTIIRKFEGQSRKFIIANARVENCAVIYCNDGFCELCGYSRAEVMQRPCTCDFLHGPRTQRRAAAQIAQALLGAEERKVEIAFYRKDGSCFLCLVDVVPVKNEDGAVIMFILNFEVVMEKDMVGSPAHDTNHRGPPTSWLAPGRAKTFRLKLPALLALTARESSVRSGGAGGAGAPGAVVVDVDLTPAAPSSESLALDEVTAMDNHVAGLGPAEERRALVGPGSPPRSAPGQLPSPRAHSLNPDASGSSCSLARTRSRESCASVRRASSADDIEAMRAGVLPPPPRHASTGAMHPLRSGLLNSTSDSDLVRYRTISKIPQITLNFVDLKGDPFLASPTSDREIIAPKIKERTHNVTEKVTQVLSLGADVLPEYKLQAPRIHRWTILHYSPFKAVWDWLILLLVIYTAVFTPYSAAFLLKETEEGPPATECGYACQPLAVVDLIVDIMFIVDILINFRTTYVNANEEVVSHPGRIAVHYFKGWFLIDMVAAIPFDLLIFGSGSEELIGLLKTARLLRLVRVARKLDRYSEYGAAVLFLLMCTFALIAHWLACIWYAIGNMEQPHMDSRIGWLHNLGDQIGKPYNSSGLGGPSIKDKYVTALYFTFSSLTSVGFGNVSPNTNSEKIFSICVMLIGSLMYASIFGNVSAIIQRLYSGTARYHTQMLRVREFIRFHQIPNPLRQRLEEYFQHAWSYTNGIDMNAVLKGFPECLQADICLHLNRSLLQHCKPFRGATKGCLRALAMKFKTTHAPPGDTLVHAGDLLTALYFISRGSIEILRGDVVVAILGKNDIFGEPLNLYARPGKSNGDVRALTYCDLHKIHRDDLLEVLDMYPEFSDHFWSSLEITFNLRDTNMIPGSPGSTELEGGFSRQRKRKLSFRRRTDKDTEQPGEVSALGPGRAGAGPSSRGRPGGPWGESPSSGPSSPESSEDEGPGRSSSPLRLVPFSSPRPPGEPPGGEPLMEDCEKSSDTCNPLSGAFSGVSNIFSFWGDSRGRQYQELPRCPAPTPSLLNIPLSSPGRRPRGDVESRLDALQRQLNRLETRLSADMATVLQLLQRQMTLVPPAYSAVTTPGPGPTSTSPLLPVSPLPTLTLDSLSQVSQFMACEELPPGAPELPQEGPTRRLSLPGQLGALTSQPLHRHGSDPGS

Structure (SMILES) | hERG current change (%, negative = inhibition) at 1uM
CCOC(=O)N1CCC(NC(=O)C(NS(=O)(=O)c2ccc3c(c2)CCN3C(C)=O)C(C)C)CC1 (stereo not drawn) | 11.4%
N#Cc1ccc(C23CC4(C2)[C@H](CN(Cc2ccc(C(F)(F)F)cc2)[C@@H]4c2ccccc2)C3c2ccccc2)cc1 (stereo partly drawn) | 16.9%
COc1ccc(CCNC(=O)c2ccc(S(=O)(=O)N3CCCCC3)cc2)cc1 | 16.7%
Cc1ccc(C(=O)N/C(=C\c2ccc(-c3ccccc3[N+](=O)[O-])o2)C(=O)NCCN(C)C)cc1 | -29.7%
Cc1cc(O)c(C=Nc2ccc(N3CCOCC3)cc2)c(C)c1Cl | 17.8%
COCCNC(=O)Cn1c(=O)n(CCCC(=O)NCc2ccc3c(c2)OCO3)c(=O)c2sccc21 | 4.57%
N/C(=N\NS(=O)(=O)c1cc(C(F)(F)F)cc(C(F)(F)F)c1)c1ccccn1 | 7.78%
CC(/C=C/c1ccco1)=N/NC(=O)Cc1cccs1 | 12.6%
COc1cc(C(=O)Oc2cccc(/C=N/NC(=O)c3cccnc3)c2)cc(OC)c1OC | 11.3%
COc1ccc(C(=O)NCCc2c[nH]c3ccccc23)cc1S(=O)(=O)N1CCCCC1C (stereo not drawn) | 0.887%
CC(C)SC1=NC(C)(C)C=C(/C=C/c2ccc(Cl)cc2Cl)N1 | 13.5%
CCCOc1ccc(N2C(=O)CC(N3CCN(c4ccc([N+](=O)[O-])cc4)CC3)C2=O)cc1 (stereo not drawn) | -34.8%
COc1cc(-c2nc3ccc4ccccc4c3c3c2CCC3)cc(OC)c1OC | 4.63%
CC1(C)N=C(N)NC(Nc2ccccc2)=N1 | 6.92%
C/C(=N\NC(=O)c1nn(C)c(C)c1Br)c1cccc(NC(=O)c2ccoc2C)c1 | -9.83%
CC(C1CC1)N(C(=O)c1ccccc1[N+](=O)[O-])c1ccccc1 (stereo not drawn) | 7.75%
Cc1ccc(CSCC(=O)N/N=C/c2sccc2C)cc1 | 7.32%
Cc1ccc(Nc2nc(CSc3nnc(-c4ccc(F)cc4)n3C)cs2)cc1 | 0.213%
CC(C)CN(CC(C)C)S(=O)(=O)N1CCC(C(=O)NCc2cccnc2)CC1 | 8.83%
CCOc1ccc(N(CC(=O)NCC(C)C)S(C)(=O)=O)cc1 | 7.01%
CN(C)S(=O)(=O)c1cc(NC(=O)CSc2nn(-c3ccc(Cl)cc3)c(=S)s2)ccc1Cl | 2.13%
COc1ccc(/C(C)=N/NC(=O)c2cc(C)[nH]n2)c(OC)c1 | 9.31%
O=C(Nc1ccc(NC(=O)c2ccncc2)cc1)c1ccncc1 | 7.78%
CCOC(=O)C1CCN(Cc2nc3ccc(Cl)cc3n2CCO)CC1 | -2.55%
COC(=O)c1sc(Nc2ccccc2)nc1C | 13.5%
N/C(=N\OS(=O)(=O)c1ccc2ccccc2c1)c1ccncc1 | 5.13%
N/C(=N\OC(=O)CCCc1ccccc1)c1ccc([N+](=O)[O-])cc1 | 3.39%

Structure (SMILES) | hERG current change (%, negative = inhibition) at 1uM
CC(C)NC(=S)N/N=C1\CCCCc2ccccc21 | -4.27%
CC(C(=O)Nc1ccc(S(=O)(=O)N2CCCCC2)cc1)N1CCN(c2ccccn2)CC1 (stereo not drawn) | 2.84%
Cc1cccc2c(N=Nc3ccccc3)c(O)[nH]c12 | 12.1%
COc1ccc(C(=O)COC(=O)c2cccnc2Cl)c(OC)c1 | 15.2%
C/C(=N\Nc1ccc([N+](=O)[O-])cc1)c1ccc(-n2nncc2C)cc1 | 4.2%
O=S(=O)(N1CCCCC1)n1c(Cc2ccccc2)nc2ccccc21 | -9.68%
C=CC1=C2C=C(C3CC3)N(CCCN(CC)CC)C=C2C(=O)C(C)(OC(=O)c2ccco2)C1=O (stereo not drawn) | 8.74%
CCn1cc(C(=O)OCC(=O)Nc2cc(S(=O)(=O)N(C)C)ccc2C)c(=O)c2ccc(C)nc21 | 8.56%
CCOc1cc(/C=C2\N=C3CCCCCN3C2=O)ccc1O | 13.6%
COC(=O)c1c(NC(=O)C2CC=CCC2C(=O)O)sc2c1CCCCC2 (stereo not drawn) | 2.52%
Cc1ccc(NC(=O)COC(=O)C2COc3ccccc3O2)cc1 (stereo not drawn) | 11.8%
CC(C)NS(=O)(=O)c1ccc(OCC(=O)NCCC2=CCCCC2)cc1 | 3.85%
CCc1c(C)nc(SCC(=O)N2CCN(c3ccccc3OC)CC2)[nH]c1=O | 9.15%
O=C(CSc1nnc(-c2ccco2)n1Cc1ccccc1)NC(=O)NCc1ccco1 | -15.6%
CCCn1c(N)c(N(C)C)c(=O)n(CC(=O)Nc2ccc(OC(F)(F)F)cc2)c1=O | 12.2%
CCN(CC)C(=O)CSc1ncnc2sccc12 | 10.8%
O=C(C1CCN(S(=O)(=O)c2cccc3cccnc23)CC1)N1CCCCC1 | 12.7%
Cc1ccc(-n2c(COc3ccccc3)n[nH]c2=S)cc1 | 23.8%
O=C(O)CCC(=O)N1N=C(c2c(-c3ccccc3)c3cc(Cl)ccc3[nH]c2=O)CC1c1cccs1 (stereo not drawn) | 9.95%
O=C(CSc1nnc(COc2ccccc2)o1)N1CCOCC1 | 1.82%
COc1ccc(S(=O)(=O)Nc2ccccc2C(=O)N2CCCCC2)cc1C | 11.1%
O=C(Oc1ccc(OC(=O)c2ccco2)c(S(=O)(=O)c2ccc(Br)cc2)c1)c1ccco1 | 9.69%
CCOc1ccc(S(=O)(=O)Nc2cc(S(=O)(=O)N3CCOCC3)ccc2OC)cc1 | -2.08%
O=[P+](Cc1ccccc1)Cc1ccccc1 | 6.48%
COc1ccc(N2CCN(C(C)C(=O)N3CCc4ccccc43)CC2)cc1 (stereo not drawn) | 8.14%
COc1ccc(S(=O)(=O)N2CCCCC2)cc1NC(=O)C1CSC2(C)CCC(=O)N12 (stereo not drawn) | 2.76%
NC(=O)CNC(=O)C1CCCc2c1[nH]c1ccc(Cl)cc21 (stereo not drawn) | 7.66%
